Results reported in the supplement of paper PMC8047034.
Structures can show the parent of a compound that is named as a salt. The list shows a part of the results. Repeats are few or missing, and single values can be far off.

Legend:
[1] = tested on: OVCAR4; assay: log2 surviving fraction (library drug vs vehicle, or drug + carboplatin vs carboplatin alone; relative to plate median); ovarian cancer lines: OVCAR4 is platinum-sensitive and Ov4Carbo platinum-resistant; higher = more cell survival; conditions: library drug concentration 10 µM, 7 days
[2] = tested on: Ov4Carbo; assay: as above; conditions: library drug concentration 10 µM, 7 days

Cc1onc(-c2ccccc2)c1-c1ccc(S(N)(=O)=O)cc1 [Bextra (valdecoxib)]
log2 surviving fraction ([1]; carboplatin co-treatment 0 µM): 0.594 | log2 surviving fraction ([1]; carboplatin co-treatment 5 µM): 0.451 | log2 surviving fraction ([2]; carboplatin co-treatment 0 µM): 1.32 | log2 surviving fraction ([2]; carboplatin co-treatment 5 µM): 1.48

CC1(C)S[C@@H]2[C@H](NC(=O)[C@H](N)c3ccc(O)cc3)C(=O)N2[C@H]1C(=O)O [Amoxicillin (Amoxycillin)]
log2 surviving fraction ([1]; carboplatin co-treatment 0 µM): 0.41 | log2 surviving fraction ([1]; carboplatin co-treatment 5 µM): -0.131 | log2 surviving fraction ([2]; carboplatin co-treatment 0 µM): 0.213 | log2 surviving fraction ([2]; carboplatin co-treatment 5 µM): -0.0351

CCC1(C)CC(=O)NC(=O)C1 [Bemegride]
log2 surviving fraction ([1]; carboplatin co-treatment 0 µM): -0.21 | log2 surviving fraction ([1]; carboplatin co-treatment 5 µM): 1.05 | log2 surviving fraction ([2]; carboplatin co-treatment 0 µM): -0.547 | log2 surviving fraction ([2]; carboplatin co-treatment 5 µM): 0.258

CN(C)[C@@H]1C(O)=C(C(N)=O)C(=O)[C@@]2(O)C(O)=C3C(=O)c4c(O)cccc4[C@@](C)(O)[C@H]3C[C@@H]12 [Tetracycline HCl]
log2 surviving fraction ([1]; carboplatin co-treatment 0 µM): 0.15 | log2 surviving fraction ([1]; carboplatin co-treatment 5 µM): 0.324 | log2 surviving fraction ([2]; carboplatin co-treatment 0 µM): 0.945 | log2 surviving fraction ([2]; carboplatin co-treatment 5 µM): 0.622

O=C(O)c1ccc(NC(=O)[C@H](Cc2ccc(O)cc2)NC(=O)c2ccccc2)cc1 [Bentiromide]
log2 surviving fraction ([1]; carboplatin co-treatment 0 µM): 0.481 | log2 surviving fraction ([1]; carboplatin co-treatment 5 µM): 0.116 | log2 surviving fraction ([2]; carboplatin co-treatment 0 µM): 0.328 | log2 surviving fraction ([2]; carboplatin co-treatment 5 µM): 1.38

CS(=O)(=O)c1ccc([C@@H](O)[C@@H](CF)NC(=O)C(Cl)Cl)cc1 [Florfenicol]
log2 surviving fraction ([1]; carboplatin co-treatment 0 µM): -1.02 | log2 surviving fraction ([1]; carboplatin co-treatment 5 µM): -0.916 | log2 surviving fraction ([2]; carboplatin co-treatment 0 µM): -1.49 | log2 surviving fraction ([2]; carboplatin co-treatment 5 µM): -2.55

CC(=O)O[C@]1(C(C)=O)CC[C@H]2[C@@H]3C[C@H](C)C4=CC(=O)C=C[C@]4(C)[C@@]3(F)[C@@H](O)C[C@@]21C [Fluorometholone Acetate]
log2 surviving fraction ([1]; carboplatin co-treatment 0 µM): 1.51 | log2 surviving fraction ([1]; carboplatin co-treatment 5 µM): 0.794 | log2 surviving fraction ([2]; carboplatin co-treatment 0 µM): 2.02 | log2 surviving fraction ([2]; carboplatin co-treatment 5 µM): 0.914

CCCCCCCCCCCCCCCCO [1-Hexadecanol]
log2 surviving fraction ([1]; carboplatin co-treatment 0 µM): -0.661 | log2 surviving fraction ([1]; carboplatin co-treatment 5 µM): 0.161 | log2 surviving fraction ([2]; carboplatin co-treatment 0 µM): -0.224 | log2 surviving fraction ([2]; carboplatin co-treatment 5 µM): -0.409

CC(=O)OCC(=O)[C@@]1(O)CC[C@H]2[C@@H]3CCC4=CC(=O)C=C[C@]4(C)[C@@]3(Cl)[C@@H](Cl)C[C@@]21C [Dichlorisone Acetate]
log2 surviving fraction ([1]; carboplatin co-treatment 0 µM): -1.12 | log2 surviving fraction ([1]; carboplatin co-treatment 5 µM): -0.88 | log2 surviving fraction ([2]; carboplatin co-treatment 0 µM): -0.126 | log2 surviving fraction ([2]; carboplatin co-treatment 5 µM): 0.224

O=c1cc[nH]c(=O)[nH]1 [Uracil]
log2 surviving fraction ([1]; carboplatin co-treatment 0 µM): 0.175 | log2 surviving fraction ([1]; carboplatin co-treatment 5 µM): -0.218 | log2 surviving fraction ([2]; carboplatin co-treatment 0 µM): 0.0477 | log2 surviving fraction ([2]; carboplatin co-treatment 5 µM): -0.25

CO/N=C(\C(=O)N[C@@H]1C(=O)N2C(C(=O)OCOC(=O)C(C)(C)C)=C(/C=C\c3scnc3C)CS[C@H]12)c1csc(N)n1 [Cefditoren pivoxil]
log2 surviving fraction ([1]; carboplatin co-treatment 0 µM): 1.26 | log2 surviving fraction ([1]; carboplatin co-treatment 5 µM): 1.09 | log2 surviving fraction ([2]; carboplatin co-treatment 0 µM): 0.847 | log2 surviving fraction ([2]; carboplatin co-treatment 5 µM): 0.318

CCCCNc1cc(C(=O)O)cc(S(N)(=O)=O)c1Oc1ccccc1 [Bumetanide]
log2 surviving fraction ([1]; carboplatin co-treatment 0 µM): -0.398 | log2 surviving fraction ([1]; carboplatin co-treatment 5 µM): 2.38 | log2 surviving fraction ([2]; carboplatin co-treatment 0 µM): 0.855 | log2 surviving fraction ([2]; carboplatin co-treatment 5 µM): 0.813

O=P(O)(O)C(O)(Cn1ccnc1)P(=O)(O)O [Zoledronic Acid (Zoledronate)]
log2 surviving fraction ([1]; carboplatin co-treatment 0 µM): 0.0759 | log2 surviving fraction ([1]; carboplatin co-treatment 5 µM): 1.28 | log2 surviving fraction ([2]; carboplatin co-treatment 0 µM): 0.324 | log2 surviving fraction ([2]; carboplatin co-treatment 5 µM): 0.275

Cc1ccc(C)c(OCCCC(C)(C)C(=O)O)c1 [Gemfibrozil (Lopid)]
log2 surviving fraction ([1]; carboplatin co-treatment 0 µM): -4.55 | log2 surviving fraction ([1]; carboplatin co-treatment 5 µM): -0.36 | log2 surviving fraction ([2]; carboplatin co-treatment 0 µM): -0.339 | log2 surviving fraction ([2]; carboplatin co-treatment 5 µM): -0.486

N[C@@H]1CN(c2c(F)cc3c(=O)c(C(=O)O)cn([C@@H]4C[C@@H]4F)c3c2Cl)CC12CC2 [Sitafloxacin hydrate]
log2 surviving fraction ([1]; carboplatin co-treatment 0 µM): 0.116 | log2 surviving fraction ([1]; carboplatin co-treatment 5 µM): 0.724 | log2 surviving fraction ([2]; carboplatin co-treatment 0 µM): 1.03 | log2 surviving fraction ([2]; carboplatin co-treatment 5 µM): 0.518

CC(C)OC(=O)C(C)(C)Oc1ccc(C(=O)c2ccc(Cl)cc2)cc1 [Fenofibrate (Tricor, Trilipix)]
log2 surviving fraction ([1]; carboplatin co-treatment 0 µM): -2.62 | log2 surviving fraction ([1]; carboplatin co-treatment 5 µM): -1.19 | log2 surviving fraction ([2]; carboplatin co-treatment 0 µM): -2.26 | log2 surviving fraction ([2]; carboplatin co-treatment 5 µM): 0.275

C[C@H]1C[C@@H]2[C@H]([C@@H](O)C[C@@]3(C)[C@H]2CC[C@]3(O)C(=O)CO)[C@@]2(C)C=CC(=O)C=C12 [Methylprednisolone]
log2 surviving fraction ([1]; carboplatin co-treatment 0 µM): 0.515 | log2 surviving fraction ([1]; carboplatin co-treatment 5 µM): 0.32 | log2 surviving fraction ([2]; carboplatin co-treatment 0 µM): 0.548 | log2 surviving fraction ([2]; carboplatin co-treatment 5 µM): 1.14
